± gives the standard deviation of the averaged measurements. The full ranking holds about 33,000 sequences; the median of “E-score (dimensionless, -0.5 to 0.5)” is about -0.049, and the highest 2% start at about 0.37. The list shows a part of the results.

The assay deals with T1, PmTbr T-box DNA-binding domain (GST fusion).
T1 sequence: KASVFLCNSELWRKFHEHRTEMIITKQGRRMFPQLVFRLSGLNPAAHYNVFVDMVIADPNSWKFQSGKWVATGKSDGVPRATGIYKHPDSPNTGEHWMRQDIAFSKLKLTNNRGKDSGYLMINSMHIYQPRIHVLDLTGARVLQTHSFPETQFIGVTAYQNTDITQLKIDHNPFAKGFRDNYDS
In words: PBM E-score of 8-mer (E-score (dimensionless, -0.5 to 0.5)); Tbr is Tbrain of the sea star Patiria miniata (Pm) or the sea urchin Strongylocentrotus purpuratus (Sp); higher = stronger binding preference; most listed sequences are background and not binding sites. The settings on record: the construct has about 5 more residues each side. Put shortly: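 GST-fused Tbr T-box DNA-binding domains (the whole T-box plus about five flanking residues) were expressed in BL21 E. coli at 20 °C and purified by glutathione affinity chromatography. Universal Agilent oligonucleotide arrays were made double-stranded by primer extension, incubated with 200 nM protein in PBS (pH 7.5), then scanned and quantified. Every ungapped 8-mer was scored from probe intensities. The Universal PBM Analysis Suite gave each word an enrichment E-score, averaged over duplicate arrays.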
CTACTTCA: the “PBM E-score of 8-mer” value turned out to be 0.0974 ± 0.028.
The figure for CGCACCAC is 0.178 ± 0.13.
Turning to ATAAGTGG, the “PBM E-score of 8-mer” value amounted to 0.124 ± 0.042.
As to AACGTGCG, the “PBM E-score of 8-mer” value is 0.345 ± 0.029.
The figure for ATTCAGGC is -0.0507 ± 0.07; for CCAACCCA it is -0.109 ± 0.035; for ACGACCAT it is 0.0077 ± 0.062.
On to CCACGGTC, for which the “PBM E-score of 8-mer” value was -0.159 ± 0.084.
For GGCGCTAC, the “PBM E-score of 8-mer” value came to 0.346 ± 0.037.
On to AAAGGCGA, for which the “PBM E-score of 8-mer” value is 0.183 ± 0.044.
Take CGGATCGA: the “PBM E-score of 8-mer” value was -0.251 ± 0.053.
Turning to ACACGGTG, the “PBM E-score of 8-mer” value was 0.178 ± 0.052.
As for GTGCATCA, the figure is 0.0214 ± 0.0025; as for AGAGCGTC, 0.0543 ± 0.0068; as for GGCAGCTA, 0.0117 ± 0.024.
Consider AGGTCAAT, for which the “PBM E-score of 8-mer” value is -0.29 ± 0.046.
On to CTATATAA, for which the “PBM E-score of 8-mer” value is -0.113 ± 0.12.
In the case of CAGCCAAC, the “PBM E-score of 8-mer” value was 0.0678 ± 0.047.
Regarding CGGACCCA, the “PBM E-score of 8-mer” value was -0.155 ± 0.065.
Turning to AATATTCT, the “PBM E-score of 8-mer” value is -0.1266 ± 0.0006.
Regarding CAGAACTG, the “PBM E-score of 8-mer” value is -0.226 ± 0.067.
For AGCGGTAT, the “PBM E-score of 8-mer” value is -0.0667 ± 0.0017.
As for AAGGCAGG, the “PBM E-score of 8-mer” value was -0.215 ± 0.0042.
The figure for AACGTGAG is 0.19 ± 0.016; for GGTTGAGA it is 0.0018 ± 0.085.
Take ACTGTACA: the “PBM E-score of 8-mer” value was -0.0159 ± 0.089.
For the sequence TAAAAAAA, the “PBM E-score of 8-mer” value turned out to be 0.0906 ± 0.087.
In the case of CGCCGACA, the “PBM E-score of 8-mer” value turned out to be 0.252 ± 0.043.
The figure for CACGCCGC is 0.176 ± 0.045; for AGCGTGTC it is 0.174 ± 0.034.
Turning to TATCTGGA, the “PBM E-score of 8-mer” value was -0.0142 ± 0.027.
Take ACTTCTAC: the “PBM E-score of 8-mer” value worked out at 0.128 ± 0.013.
Regarding ACGGCTTG, the “PBM E-score of 8-mer” value was -0.0273 ± 0.0036.
Turning to CGGTGTGC, the “PBM E-score of 8-mer” value worked out at 0 ± 0.12.
For the sequence ATTCCTAG, the “PBM E-score of 8-mer” value was -0.2231 ± 0.001.
CAATGAGC: the “PBM E-score of 8-mer” value was found to be 0.0125 ± 0.026.
As to AAGTCATT, the “PBM E-score of 8-mer” value is -0.0342 ± 0.057.
In the case of AGAGGTAG, the “PBM E-score of 8-mer” value is -0.165 ± 0.011.
For the sequence TATAAAAA, the “PBM E-score of 8-mer” value is -0.165 ± 0.13.
As for CGAGCCCA, the “PBM E-score of 8-mer” value is -0.168 ± 0.016.
AGTCGCCC: the “PBM E-score of 8-mer” value came to 0.00515 ± 0.0088.
With ACCGCTAC, the “PBM E-score of 8-mer” value came out at 0.0113 ± 0.11.
The figure for CGGCGTCC is -0.226 ± 0.084; for GTAAAACA it is -0.0678 ± 0.083.
On to AGTAGTTA, for which the “PBM E-score of 8-mer” value is -0.142 ± 0.091.
As for CTCGAGAA, the “PBM E-score of 8-mer” value was -0.0318 ± 0.016.
As for CGCTATGA, the figure is 0.0752 ± 0.0096; as for ATGCTAGG, -0.201 ± 0.095.
For the sequence AGTCGGAT, the “PBM E-score of 8-mer” value was -0.205 ± 0.043.
For the sequence CGGCATCA, the “PBM E-score of 8-mer” value is 0.00958 ± 0.091.
Take GCTGGTAA: the “PBM E-score of 8-mer” value is -0.161 ± 0.017.
The figure for ATAAGGAT is -0.0432 ± 0.072; for CGTAATGA it is -0.119 ± 0.046.
On to CTTGAAGA, for which the “PBM E-score of 8-mer” value was -0.137 ± 0.072.
Turning to ACAGCTTA, the “PBM E-score of 8-mer” value worked out at 0.0809 ± 0.017.
As to ACTATACA, the “PBM E-score of 8-mer” value is -0.134 ± 0.063.
For the sequence TAATATGA, the “PBM E-score of 8-mer” value came out at 0.0089 ± 0.083.
On to CGAGGGTA, for which the “PBM E-score of 8-mer” value is -0.214 ± 0.024.
For the sequence TGATCCAA, the “PBM E-score of 8-mer” value was 0.0657 ± 0.0028.
On to AAGTGGCC, for which the “PBM E-score of 8-mer” value is -0.122 ± 0.043.
As to ATTGCGTA, the “PBM E-score of 8-mer” value was -0.275 ± 0.013.
The figure for AATGACGT is -0.0358 ± 0.064.
As to ATAGCTAT, the “PBM E-score of 8-mer” value is -0.243 ± 0.036.
Regarding CATCCGCG, the “PBM E-score of 8-mer” value stood at 0.0749 ± 0.033.
For the sequence AAGTACTA, the “PBM E-score of 8-mer” value is -0.155 ± 0.051.
Consider ACGCGTCA, for which the “PBM E-score of 8-mer” value came out at 0.2939 ± 0.001.
As for GTCTGACA, the figure is 0.158 ± 0.063; as for GAATCCGC, 0.0547 ± 0.0039.
TAACATCA: the “PBM E-score of 8-mer” value is -0.0986 ± 0.04.
As for ACCCAGGG, the figure is -0.0641 ± 0.035; as for CCGACCGC, -0.066 ± 0.048; as for TAGGACGA, -0.4379 ± 0.00091.
As for AGACCGTG, the figure is 0.0657 ± 0.023; as for ACGTGAGC, 0.0549 ± 0.011; as for AATCTACT, -0.0512 ± 0.011.
On to GCATCGAA, for which the “PBM E-score of 8-mer” value is -0.239 ± 0.065.
In the case of AGCTCGCC, the “PBM E-score of 8-mer” value is -0.2 ± 0.14.
As for GCATCACA, the figure is 0.279 ± 0.0073; as for GTCTTGCA, -0.132 ± 0.069; as for GCCTACAC, 0.112 ± 0.059.
For CTGCGGGA, the “PBM E-score of 8-mer” value was -0.177 ± 0.0041.
For the sequence ATTCGTGG, the “PBM E-score of 8-mer” value is -0.111 ± 0.019.
For TGCGTGAA, the “PBM E-score of 8-mer” value amounted to 0.3679 ± 0.0033.
Take CGAAACAG: the “PBM E-score of 8-mer” value is -0.0622 ± 0.067.
For the sequence AACACCGA, the “PBM E-score of 8-mer” value worked out at 0.234 ± 0.034.
In the case of AAGGGGTA, the “PBM E-score of 8-mer” value is -0.208 ± 0.017.
CAGCTGTC: the “PBM E-score of 8-mer” value is 0.288 ± 0.017.
As to AGGTGCAT, the “PBM E-score of 8-mer” value was 0.11 ± 0.017.
On to GCTACCAC, for which the “PBM E-score of 8-mer” value is 0.146 ± 0.02.
The figure for AACTCTCC is -0.0439 ± 0.048; for AGACATGC it is -0.0474 ± 0.0019; for AGCCACAC it is 0.228 ± 0.058.
For AAACTCAT, the “PBM E-score of 8-mer” value was -0.112 ± 0.0095.
The figure for CGCAGATC is 0.015 ± 0.0024; for CGACTACG it is 0.124 ± 0.033.
For CTGATACA, the “PBM E-score of 8-mer” value was -0.0621 ± 0.023.
CGAGTCAA: the “PBM E-score of 8-mer” value was -0.0592 ± 0.08.
As for CGGCGCCG, the “PBM E-score of 8-mer” value was determined as 0.15 ± 0.13.
As for TAAACTCA, the figure is -0.159 ± 0.041; as for ATGCATGA, -0.078 ± 0.0099.
As for CTAGACTC, the figure is -0.192 ± 0.01; as for AAGCCTAA, -0.215 ± 0.042; as for AAGTCTCC, -0.0144 ± 0.014.
With CATGAGCA, the “PBM E-score of 8-mer” value was -0.109 ± 0.08.
As to CAATTGTG, the “PBM E-score of 8-mer” value was 0.222 ± 0.022.
The figure for ATACCGTC is -0.0027 ± 0.047.
CTTCATTA: the “PBM E-score of 8-mer” value was -0.249 ± 0.018.
As for GGACCAAC, the figure is -0.124 ± 0.037; as for CGACATGA, 0.028 ± 0.0062.

(Values after the supplement of paper PMC4166925.)
